{
  "source": "the supplement of paper PMC12889115",
  "note": "Some of the results follow. Repeats are few or missing, and single values can be far off.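 Further: polymyxin B level opens the outer membrane while sparing the inner membrane, with novobiocin wells as reference growth inhibitor.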",
  "data": [
    {"tested_on": "Salmonella enterica serovar Typhimurium SL1344", "assay": "bacterial growth OD600 after 18 h in MHB with 0.5 µg/mL polymyxin B; higher = more bacterial growth (less inhibition)", "conditions": "25 µM; polymyxin B 0.5 µg/mL; system: broth", "protocol": "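Secondary screen of the 553 primary hits at 25 µM. (i) S. Typhimurium SL1344 grown in Mueller-Hinton broth with 0.5 µg/mL polymyxin B, OD600 read after 18 h. (ii) SAFIRE assay: RAW 264.7 macrophages infected with S. Typhimurium sifB::gfp (MOI 30); compound added 2 h post-infection; cells fixed at 18 h; GFP-positive pixel fraction per macrophage imaged by confocal microscopy and expressed as % of DMSO control.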", "values": [
      {"compound": "O=C(c1cn(Cc2c(F)cccc2F)nn1)N(Cc1ccccc1)CC1CCC1", "bacterial growth OD600": -0.005},
      {"compound": "O=C(c1cn(Cc2ccccc2F)nn1)N(Cc1ccccc1)CC1CC1", "bacterial growth OD600": 0.001},
      {"compound": "COc1cccc(CN2CCCC(C(=O)c3ccc(Cl)cc3C)C2)c1O", "note": "(stereo not drawn)", "bacterial growth OD600": 0.006}
    ]}
  ]
}
